# PubChem BioAssay AID720708 (National Center for Advancing Translational Sciences (NCATS), 2013)
# Among all 360,000 compounds or so, about 660 (0.18%) were called active. This list was built around the results that the source calls inconclusive (neither active nor inactive); the mix of calls is not that of the screen. Calls follow the shape of the dose curve; as a rule, active = well fitted inhibition curve with a large enough effect; inconclusive = small, poorly fitted or top-dose-only effect; inactive = no such curve, though single readings can be large or run the other way. Potencies of inconclusive entries are left out as doubtful fits.
# Biological target: Rap guanine nucleotide exchange factor 4 (Homo sapiens) (UniProt Q8WZA2)
# Test: qHTS for Antagonist of cAMP-regulated guanine nucleotide exchange factor 2 (EPAC2): primary screen; also: nearly all actives have a fitted effect of over 45% in size
# Conditions: EPAC2 GEF exchange of Rap1B-BODIPY-GDP, fluorescence; activity, negative = inhibition: at 114 µM (top of the series) unless noted
# % is scaled to controls: 0 for no effect and ±100 for the full control effect; potency is read from the fitted curve at half-maximal effect; tags tell the direction and shape of the fitted curve.
# UniProt Q8WZA2, sequence (Q8WZA2 whole entry, looked up): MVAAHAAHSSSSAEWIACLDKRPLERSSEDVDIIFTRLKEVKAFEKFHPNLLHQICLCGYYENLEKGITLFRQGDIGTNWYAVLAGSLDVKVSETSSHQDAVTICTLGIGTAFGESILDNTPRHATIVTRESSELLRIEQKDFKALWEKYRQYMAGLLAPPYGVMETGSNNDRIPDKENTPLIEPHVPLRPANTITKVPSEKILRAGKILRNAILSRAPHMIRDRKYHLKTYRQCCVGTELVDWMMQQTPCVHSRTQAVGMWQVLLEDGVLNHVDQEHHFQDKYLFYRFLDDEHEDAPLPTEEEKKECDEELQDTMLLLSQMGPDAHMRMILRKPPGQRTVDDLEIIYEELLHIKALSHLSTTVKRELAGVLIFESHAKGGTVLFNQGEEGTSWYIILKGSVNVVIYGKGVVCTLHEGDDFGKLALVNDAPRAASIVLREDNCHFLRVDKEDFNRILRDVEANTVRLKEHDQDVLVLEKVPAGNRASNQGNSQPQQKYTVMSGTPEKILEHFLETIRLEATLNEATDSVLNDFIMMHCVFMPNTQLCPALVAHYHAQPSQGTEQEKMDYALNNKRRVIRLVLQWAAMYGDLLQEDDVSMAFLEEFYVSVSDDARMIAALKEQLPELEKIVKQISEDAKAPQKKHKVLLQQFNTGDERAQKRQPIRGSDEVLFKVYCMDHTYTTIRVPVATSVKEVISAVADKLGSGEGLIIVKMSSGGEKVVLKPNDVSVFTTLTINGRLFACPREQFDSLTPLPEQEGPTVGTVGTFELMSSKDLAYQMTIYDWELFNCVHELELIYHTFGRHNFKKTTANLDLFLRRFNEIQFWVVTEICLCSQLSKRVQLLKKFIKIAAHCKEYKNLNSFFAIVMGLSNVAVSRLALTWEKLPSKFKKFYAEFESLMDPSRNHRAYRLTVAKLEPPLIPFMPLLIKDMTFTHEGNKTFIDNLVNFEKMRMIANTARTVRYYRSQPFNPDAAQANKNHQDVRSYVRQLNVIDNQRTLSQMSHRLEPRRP
Compound,Potency,"activity, negative = inhibition"
O=S1(=O)CCOC[C@H](c2ccccc2)N1Cc1ccccc1F,"inconclusive [inhibitor, partial curve]",
O=S(=O)(NCCN1CCOCC1)c1ccc2c(c1)OCCO2,"inconclusive [inhibitor, partial curve]",
c1ccc(C(c2c[nH]c3ccccc23)c2c[nH]c3ccccc23)nc1,"inconclusive [inhibitor, full curve]",
COc1ccc(Br)cc1CN(C)CC(=O)Nc1c(Cl)ccc(C)c1Cl,"inconclusive [inhibitor, full curve]",
CC(C(=O)Nc1ccccc1-c1ccccc1)N1CCN(C(=O)c2ccccc2)CC1 (centres undefined),"inconclusive [inhibitor, full curve]",
Cc1ccc2c(=O)n3c(nc2c1)C(C)NC(=O)c1cccnc1-3 (centres undefined),inactive,
CCOCc1nnc(NC(=O)C2c3ccccc3Oc3ccccc32)s1,"inconclusive [inhibitor, full curve]",
CCOC(=O)c1sc(N/N=C/c2ccccc2)nc1C,inactive,
O=C1CCC/C(=N\NC(=O)c2ccc(COc3ccccc3-c3ccccc3)cc2)C1,"inconclusive [inhibitor, partial curve]",
C=C1CCN([C@@H](C)C(=O)OCc2ccc(C)cc2)S(=O)(=O)c2ccccc21,"inconclusive [inhibitor, partial curve, poor fit]",
CN(C)c1ccc(CC2C(=O)Nc3ccccc32)cc1 (centres undefined),inactive,
CCN(CC)C(=O)CSc1nc(COc2ccccc2)nc2ccccc12,"inconclusive [inhibitor, full curve]",
COC(=O)c1ccc2nc(-c3ccccc3)c(Cc3ccccc3OC)n2c1,"inconclusive [inhibitor, full curve, poor fit]",
O=C(c1ccco1)N1N=C(C2CCCCC2)CC1(O)C(F)(F)F (centres undefined),"inconclusive [inhibitor, partial curve]",
COc1cccc(CN2CC(O)=C(c3nc(-c4ccc(Cl)cc4)cs3)C2=N)c1,inactive,
CCn1c(SCC(=O)Nc2sc3c(c2C(N)=O)CCC(C)C3)nnc1-c1ccco1 (centres undefined),"inconclusive [inhibitor, single point]",
Cc1ccc(CSc2nc(-c3ccccc3)c(C#N)c(=O)[nH]2)cc1,"inconclusive [inhibitor, partial curve]",
C=CCOC(=O)C1=C(C)NC(C)=C(C(=O)OCC=C)C1c1ccco1,active: 44.7 µM,
COc1ccc(C(=O)Oc2ccc(/C=N/Nc3ccc(Cl)c(C(=O)O)c3)cc2OC)cc1,active: 20 µM,
Oc1ccc(Br)cc1CNc1cccc2cccnc12,"inconclusive [inhibitor, partial curve]",
COc1ccc(CSc2nc(O)cc(=O)n2CC(C)C)cc1F,inactive,
Oc1ccc(/C(Cc2ccccn2)=N\Nc2ccccc2)c(O)c1,active: 44.7 µM,

Compound,Potency,"activity, negative = inhibition"
CC(Oc1ccc(-c2ccccc2)cc1)C(=O)N1CCOCC1 (centres undefined),"inconclusive [inhibitor, partial curve]",
COc1ccc(NC(=O)Cc2nnc(SCC(=O)Nc3nccs3)n2C)cc1,"inconclusive [inhibitor, single point]",
CN(Cc1ccccc1)C(=O)[C@@H]1CCCN1C(=O)[C@@H]1CCCN1C(=O)c1ccccc1,inactive,
Cc1[nH][nH]c(=O)c1C(c1c(C)[nH][nH]c1=O)c1cn(C)c2ccccc12,inactive,
COc1ccc(N2CCN(C3CCCCC3NS(=O)(=O)c3ccccc3)CC2)cc1 (centres undefined),"inconclusive [inhibitor, full curve]",
CC1=CC(C)C(C(=O)O)C(C(=O)N2CCN(C)CC2)C1 (centres undefined),"inconclusive [inhibitor, single point]",
COC(=O)C(C)Sc1nc2ccsc2c(=O)n1Cc1ccccc1 (centres undefined),"inconclusive [inhibitor, partial curve]",
COc1ccc(-c2cn(-c3ccc(C)c(Cl)c3)c(=S)[nH]2)cc1OC,"inconclusive [inhibitor, full curve, poor fit]",
CCC(CO)Oc1cc(NCc2cc(C)cc(C)c2)c2ncn(C(C)C)c2c1 (centres undefined),"inconclusive [inhibitor, single point]",
Cc1ccc(C(c2nc3ccccc3[nH]2)n2c(-c3ccccc3)nc3ccccc32)cc1 (centres undefined),inactive,
CCN(CC)c1ccc(C(=O)NNC(=O)C2CCN(c3ncnc4sc(C)c(C)c34)CC2)cc1,"inconclusive [inhibitor, single point]",
Cc1nc2c(OCc3ccc(Cl)cc3)cccn2c1N(C)Cc1cccs1,"inconclusive [inhibitor, single point]",
CCn1c(C(=O)N2CCc3ccccc3C2)cc2sccc21,"inconclusive [inhibitor, full curve]",
COC(=O)c1ccccc1C(=O)c1cccc2ccccc12,active: 44.7 µM,
O=C(NCc1ccccc1)c1ccc2c(=O)[nH]c3c(C(=O)NCC4CCCO4)sc(=S)n3c2c1 (centres undefined),"inconclusive [inhibitor, partial curve]",
COC(=O)c1cc(Sc2c(Cl)cccc2Cl)ccn1,"inconclusive [inhibitor, full curve]",
Cc1cccc2sc(N(CCCN(C)C)C(=O)CCS(=O)(=O)c3ccccc3)nc12,"inconclusive [inhibitor, single point]",
O=C(c1cc(COc2ccc(F)cc2Cl)on1)N1CC[C@@H]2CCCC[C@H]2C1,"inconclusive [inhibitor, single point]",
Cc1c(C)n(Cc2ccccc2)c2ncnc(Cl)c12,"inconclusive [inhibitor, partial curve]",
Cc1ccc(S(=O)(=O)N2CCC(=O)N(C(COCc3ccccc3)Cc3ccccc3)CC2)cc1 (centres undefined),,inconclusive: -17.5% [inhibitor]
Cc1ccc(C(NC(=O)C(C)C)c2cc([N+](=O)[O-])c3cccnc3c2O)cc1 (centres undefined),inactive,
COc1ccc(-c2ccc(C(=O)N3CCOCC3)c3occc23)c(C)c1,"inconclusive [inhibitor, single point]",
